About 260 (0.063%) of roughly 410,000 compounds were called active. This list was built around the results that the source calls inconclusive (neither active nor inactive); the mix of calls is not that of the screen. The call rests on the fitted dose curve; in most records, active means well fitted activation curve with a large enough effect; inconclusive means small, poorly fitted or top-dose-only effect; inactive means no such curve, though single readings can be large or run the other way. Potencies of inconclusive entries are left out as doubtful fits.
Experiment: qHTS for compounds that reverse cellular toxicity of Amyloid beta (A-beta) peptide in yeast: Primary Screen; further: nearly all actives have a fitted effect of over 55% in size
Details: yeast expressing A-beta42, growth rescue, OD600, 48 h; growth rescue: at 46.1 µM (top of the series), 0% DMSO, 100% iron-clioquinol control
Procedure, shortened: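 Growth rescue measured by 600 nm absorbance after 48 h yeast culture at 30 C with compound. Values normalized between DMSO and an equimolar ferric chloride plus clioquinol control.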
Potency means the concentration at half of the fitted maximal effect; tags describe the fitted curve by direction and shape.

Structure (SMILES) | growth rescue | Potency
O=C1Nc2ccccc2/C1=N/N=C/c1cccc(O)c1 | inactive: -9.75% | 
Cc1ccc(NC(=S)NCC2CCCO2)cc1 (stereo unspecified) |  | inconclusive [activator, full curve, poor fit]
ClC(Cl)c1nnc(-c2ccccc2)c(-c2c[nH]c3ccccc23)n1 |  | inconclusive [activator, partial curve, poor fit]
N#C/C=C1\n2c(nc3ccccc32)OC12CCCCC2 | inactive: -9.3% | 
CCC(C)[C@H](N)c1nnc(SCC(=O)c2ccc(Cl)cc2)o1 (stereo partly specified) |  | inconclusive [activator, full curve]
Cc1ccc(C(=O)c2ccccc2C(=O)OCC(=O)NC(C)(C)C)cc1 |  | inconclusive [activator, partial curve, poor fit]
S=C(N/N=C/c1ccco1)NC1CC2CCC1C2 (stereo unspecified) |  | inconclusive [activator, partial curve]
CCCCC(O)(c1ccccc1)C(CN1CCOCC1)c1ccccc1 (stereo unspecified) | inactive: -5.7% | 
O=C(Oc1ccc(F)cc1)c1nc(SCc2ccc(F)cc2)ncc1Cl | inactive: 3.08% | 
O=C(CN1CCN(S(=O)(=O)c2cc(Br)ccc2Br)CC1)NCc1ccccc1Cl | inactive: -7.14% | 
CN(C)c1ccc(-c2nc(-c3cccs3)c(-c3cccs3)[nH]2)cc1 |  | inconclusive [activator, full curve, poor fit]
CCCN(CC(=O)Nc1ccccc1C)C(=O)Cc1coc2cc(C)ccc12 |  | inconclusive [activator, partial curve, poor fit]
CCc1ccccc1Oc1nc(NCCOC)nc2cc(-c3ccccc3)sc12 |  | inconclusive [activator, single point]
CCCCNC(=S)NCC(c1ccccc1)c1c[nH]c2ccccc12 (stereo unspecified) |  | inconclusive [activator, single point]
Cc1ccc([C@H]2C(C(=O)O)=CC[C@@H](c3cccc(Cl)c3)N2S(=O)(=O)c2ccc(C)cc2)cc1 | inactive: -2.01% | 
O=C(Cc1cccs1)NNC(=S)NC(=O)c1ccccc1 |  | inconclusive [activator, partial curve, poor fit]
COc1cc(C(C)=O)ccc1OCC(=O)c1cc(C)n(C2CC2)c1C | inactive: -6.63% | 
CCOC(=O)c1c(NC(=O)COC(=O)CCOc2cc(C)ccc2C)sc(C(=O)N(C)C)c1C |  | inconclusive [activator, partial curve]
Clc1ccc(N2CCN(c3ccnc(Cl)n3)CC2)cc1 | inactive: -20.3% | 
CCCNC(=O)NC(C(=O)OC)C12CC3CC(CC(C3)C1)C2 (stereo unspecified) |  | inconclusive [activator, partial curve, poor fit]
CCOc1ccccc1NC(=O)C(=O)NCCc1sc2nc(-c3ccc(OC)cc3)nn2c1C |  | inconclusive [activator, single point]
COc1ccccc1-c1nnc(SCC(=O)O)n1-c1ccccc1 | inactive: -14.8% | 
COc1ccc(C2CC(c3ccc(Br)cc3)=NN2C(=S)Nc2ccccc2)cc1 (stereo unspecified) |  | inconclusive [activator, partial curve]

Structure (SMILES) | growth rescue | Potency
CCCc1cc(N2CCN(c3cccc(C)c3C)CC2)n2cnnc2n1 | inactive: 2.78% | 
COC(=O)c1[nH]c2ccc(C)cc2c1NC(=O)NC1CCCCC1 | inactive: 7.29% | 
Cc1ccccc1OCCN1C(=O)NC2(CCCc3ccccc32)C1=O (stereo unspecified) |  | inconclusive [activator, partial curve, poor fit]
CCOC(=O)c1c(NC(=O)c2nn(CC)cc2Br)sc(C)c1C | inactive: 9.03% | 
COc1ccc(C(O)c2nc(-c3cccc4cccnc34)cs2)cc1 (stereo unspecified) |  | inconclusive [activator, partial curve, poor fit]
CC1(C(=O)NCc2ccc(Cl)cc2)CCN1C(=O)Cc1cccc2ccccc12 (stereo unspecified) | inactive: 10.1% | 
Cc1cc(C)nc(SCc2nnc(SCC(=O)Nc3c(C)cccc3C)o2)n1 | inactive: -0.835% | 
CCCCCn1c(=O)[nH]c2cc(C(=O)N3CCN(c4cc(Cl)ccc4C)CC3)ccc2c1=O | inactive: 7.4% | 
Cc1ccccc1-n1c(SCC(N)=O)nc2sc(-c3ccccc3)cc2c1=O |  | inconclusive [activator, partial curve, poor fit]
CCOc1cc(C(=S)N2CCCCC2)ccc1OS(=O)(=O)c1ccc(Cl)cc1 |  | inconclusive [activator, partial curve]
Cc1ccc(CSC2=Nc3ccccc3C3=NC(CCC(=O)NCc4cccs4)C(=O)N23)cc1 (stereo unspecified) | inactive: 0.0303% | 
CCC(CO)Oc1cc(NC(=O)c2ccc(Cl)cc2)c2ncn(C(C)C)c2c1 (stereo unspecified) | inconclusive: 51.8% [activator] | 
CCOc1ccc(CNc2ccc(N3CCN(Cc4ccccc4)CC3)cc2)cc1 |  | inconclusive [activator, partial curve, poor fit]
CCCc1nc(SCc2ccc(Cl)cc2Cl)n[nH]1 |  | inconclusive [activator, single point]
COc1cccc(C(C)(O)c2nc(-c3ccc(C)c(C)c3)cs2)c1 (stereo unspecified) | inactive: 24.7% | 
Cc1ccc(C2=CC(C)(c3ccc(C)cc3)Nc3nc(C(F)(F)F)nn32)cc1 (stereo unspecified) |  | inconclusive [activator, partial curve, poor fit]
CC1Cc2ccccc2N1C(=O)c1cc2sccc2n1Cc1ccccc1 (stereo unspecified) |  | inconclusive [activator, single point]
CC1CCCCN1C(=S)Nc1ccc(S(=O)(=O)N2CCCCC2)cc1 (stereo unspecified) | inactive: -15.9% | 
COCc1ccc(C(=O)N2CCCC(C(=O)c3cc(F)ccc3F)C2)s1 (stereo unspecified) | inactive: -0.146% | 
CC1CCC2C(=O)N(c3ccc(C(=O)NCc4ccccc4)cc3)C(=O)C2C1 (stereo unspecified) |  | inconclusive [activator, single point]
COc1ccc(/C(C)=N/NC(=S)Nc2cc(C)ccc2C)cc1 |  | inconclusive [activator, single point]
CCCCOc1ccc(CNC(=O)c2ccc(NC(=O)N3CCSc4ncccc43)cc2)cc1 | inactive: -9.41% | 
C(=N\Nc1nc2ccccc2s1)/c1ccco1 |  | inconclusive [activator, full curve]
